# Measured values published in the supplement of paper PMC8728848.
# Some of the results follow.
# Key:
# Assay in all cases: glycan array binding signal (z-score within array); higher = stronger binding
# Conditions in all cases: glycan notation: IUPAC condensed, linker removed
# [1] = biological target: Gal(b1-3)[Fuc(a1-4)]GlcNAc(b1-3)Gal(b1-4)[Fuc(a1-3)]GlcNAc
# In short: (§1)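 Glycan array binding is given as a within-array Z-score, which can be read as non-binding when negative. The arrays, 3228 of them, came from the Consortium for Functional Glycomics database and were retained only where the protein sequence was available. Z-scores were averaged across arrays of the same protein sequence at different concentrations or buffers and across linkers.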
# [2] = biological target: Gal(b1-3)[GlcNAc(b1-6)]GalNAc
# In short: as §1
# [3] = biological target: Gal(b1-3)[Neu5Ac(a2-6)]GalNAc
# In short: as §1
# [4] = biological target: Gal(b1-3)[Neu5Ac(a2-6)]GlcNAc(b1-6)Gal(b1-4)Glc
# In short: as §1
# [5] = biological target: Gal(b1-3)[Neu5Ac(b2-6)]GalNAc
# In short: as §1
# [6] = biological target: Gal(b1-4)GalNAc(a1-3)[Fuc(a1-2)]Gal(b1-4)GlcNAc
# In short: as §1
# [7] = biological target: Gal(b1-4)GalNAc(b1-3)[Fuc(a1-2)]Gal(b1-4)GlcNAc
# In short: as §1
# Gal(b1-4)Glc = biological target: Gal(b1-4)Glc
# In short: as §1
# Gal(b1-4)Glc6S = biological target: Gal(b1-4)Glc6S
# In short: as §1
# Gal(b1-4)GlcNAc = biological target: Gal(b1-4)GlcNAc
# In short: as §1
# [8] = biological target: Gal(b1-4)GlcNAc(a1-6)Gal(b1-4)GlcNAc
# In short: as §1
# [9] = biological target: Gal(b1-4)GlcNAc(b1-2)Man(a1-3)[Gal(b1-4)GlcNAc(b1-2)Man(a1-6)]Man(b1-4)GlcNAc(b1-4)GlcNAc
# In short: as §1
# [10] = biological target: Gal(b1-4)GlcNAc(b1-3)Gal(b1-3)GlcNAc
# In short: as §1
# [11] = biological target: Gal(b1-4)GlcNAc(b1-3)Gal(b1-4)Glc
# In short: as §1
# [12] = biological target: Gal(b1-4)GlcNAc(b1-3)Gal(b1-4)GlcNAc
# In short: as §1
# [13] = biological target: Gal(b1-4)GlcNAc(b1-3)Gal(b1-4)GlcNAc(b1-3)Gal(b1-4)GlcNAc
# In short: as §1
# [14] = biological target: Gal(b1-4)GlcNAc(b1-3)Gal(b1-4)[Fuc(a1-3)]GlcNAc(b1-3)Gal(b1-4)[Fuc(a1-3)]GlcNAc
# In short: as §1
# [15] = biological target: Gal(b1-4)GlcNAc(b1-3)GalNAc
# In short: as §1
# [16] = biological target: Gal(b1-4)GlcNAc(b1-3)[Gal(b1-4)GlcNAc(b1-6)]Gal(b1-4)GlcNAc
# In short: as §1
# [17] = biological target: Gal(b1-4)GlcNAc(b1-3)[GlcNAc(b1-6)]Gal(b1-4)GlcNAc
# In short: as §1
# [18] = biological target: Gal(b1-4)GlcNAc(b1-6)Gal(b1-4)GlcNAc
# In short: as §1
# [19] = biological target: Gal(b1-4)GlcNAc(b1-6)Gal(b1-4)GlcNAc(b1-6)GalNAc
# In short: as §1
# [20] = biological target: Gal(b1-4)GlcNAc(b1-6)GalNAc
# In short: as §1
# [21] = biological target: Gal(b1-4)GlcNAc(b1-6)[Gal(b1-3)]GalNAc
# In short: as §1
# Gal3S(b1-3)GalNAc = biological target: Gal3S(b1-3)GalNAc
# In short: as §1
# Gal3S(b1-3)GlcNAc = biological target: Gal3S(b1-3)GlcNAc
# In short: as §1
# [22] = biological target: Gal3S(b1-3)[Fuc(a1-4)]GlcNAc
# In short: as §1
# Gal3S(b1-4)Glc = biological target: Gal3S(b1-4)Glc
# In short: as §1
# Gal3S(b1-4)Glc6S = biological target: Gal3S(b1-4)Glc6S
# In short: as §1
# Gal3S(b1-4)GlcNAc = biological target: Gal3S(b1-4)GlcNAc
# In short: as §1
# Gal3S(b1-4)GlcNAc6S = biological target: Gal3S(b1-4)GlcNAc6S
# In short: as §1
# [23] = biological target: Gal3S(b1-4)[Fuc(a1-3)]Glc
# In short: as §1
# Gal3S4S(b1-4)GlcNAc = biological target: Gal3S4S(b1-4)GlcNAc
# In short: as §1
# Gal3S6S(b1-4)GlcNAc = biological target: Gal3S6S(b1-4)GlcNAc
# In short: as §1
# Gal3S6S(b1-4)GlcNAc6S = biological target: Gal3S6S(b1-4)GlcNAc6S
# In short: as §1
# Gal4S(b1-4)GlcNAc = biological target: Gal4S(b1-4)GlcNAc
# In short: as §1
# Gal4S6S(b1-4)GlcNAc = biological target: Gal4S6S(b1-4)GlcNAc
# In short: as §1
binder,measurement,setting,value
"MUC1-SEA-mFcIgG2a (Homo sapiens), P15941 (SEA domain only) (protein) DAAQPARRAVRSSSELTSEQKLISEEDLSRLVHNGTSARATTTPASKSTPFSIPSHHSDTPTTLASHSTKTDASSTHHSTVPPLTSSNHSTSPQLSTGVSFFFLSFHISNLQFNSSLEDPSTDYYQELQRDISEMFLQIYKQGGFLGLSNIKFRPGSVVVQLTLAFREGTINVHDVETQFNQYKTEAASRYNLTISDASVSDVPFPFSAQSGSDDDDKALEPRGPTIKPCPPCKCPAPNLLGGPSVFIFPPKIKDVLMISLSPIVTCVVVDVSEDDPDVQISWFVNNVEVHTAQTQTHREDYNSTLRVVSALPIQHQDWMSGKEFKCKVNNKDLPAPIERTISKPKGSVRAPQVYVLPPPEEEMTKKQVTLTCMVTDFMPEDIYVEWTNNGKTELNYKNTEPVLDSDGSYFMYSKLRVEKKNWVERNSYSCSVVHEGLHNHHTTKSFSRTPGKHHHHH",glycan array binding signal (z-score),[1],-0.598
same,glycan array binding signal (z-score),[2],-0.45
same,glycan array binding signal (z-score),[3],-0.066
same,glycan array binding signal (z-score),[4],-0.439
same,glycan array binding signal (z-score),[5],-0.316
same,glycan array binding signal (z-score),[6],-0.326
same,glycan array binding signal (z-score),[7],0.806
same,glycan array binding signal (z-score),Gal(b1-4)Glc,-0.124
same,glycan array binding signal (z-score),Gal(b1-4)Glc6S,0.371
same,glycan array binding signal (z-score),Gal(b1-4)GlcNAc,-0.304
same,glycan array binding signal (z-score),[8],-0.059
same,glycan array binding signal (z-score),[9],-0.667
same,glycan array binding signal (z-score),[10],0.367
same,glycan array binding signal (z-score),[11],-0.139
same,glycan array binding signal (z-score),[12],-0.367
same,glycan array binding signal (z-score),[13],-0.175
same,glycan array binding signal (z-score),[14],-0.289
same,glycan array binding signal (z-score),[15],-0.513
same,glycan array binding signal (z-score),[16],-0.22
same,glycan array binding signal (z-score),[17],-0.374
same,glycan array binding signal (z-score),[18],-0.164
same,glycan array binding signal (z-score),[19],-0.381
same,glycan array binding signal (z-score),[20],-0.197
same,glycan array binding signal (z-score),[21],-0.33
same,glycan array binding signal (z-score),Gal3S(b1-3)GalNAc,0.226
same,glycan array binding signal (z-score),Gal3S(b1-3)GlcNAc,-0.311
same,glycan array binding signal (z-score),[22],-0.332
same,glycan array binding signal (z-score),Gal3S(b1-4)Glc,1.15
same,glycan array binding signal (z-score),Gal3S(b1-4)Glc6S,2.09
same,glycan array binding signal (z-score),Gal3S(b1-4)GlcNAc,-0.044
same,glycan array binding signal (z-score),Gal3S(b1-4)GlcNAc6S,0.662
same,glycan array binding signal (z-score),[23],-0.067
same,glycan array binding signal (z-score),Gal3S4S(b1-4)GlcNAc,1.68
same,glycan array binding signal (z-score),Gal3S6S(b1-4)GlcNAc,0.879
same,glycan array binding signal (z-score),Gal3S6S(b1-4)GlcNAc6S,3.49
same,glycan array binding signal (z-score),Gal4S(b1-4)GlcNAc,0.176
same,glycan array binding signal (z-score),Gal4S6S(b1-4)GlcNAc,0.978
